Assay results published in PubChem BioAssay AID1963576 (National Center for Advancing Translational Sciences (NCATS), 2024).
The whole screen tested about 46,000 compounds, of which about 60 (0.1%) were called active. Not shown: some 3% with an inconclusive outcome. The call rests on the fitted dose curve; in most records, active means well fitted inhibition curve with a large enough effect; inconclusive means small, poorly fitted or top-dose-only effect; inactive means no such curve, though single readings can be large or run the other way. Some of the results follow.

Test: Primary qHTS assay for Inhibitors of ovarian cancer metastasis using an organotypic tumor microenvironment (TME) model. Further: nearly all actives have a fitted effect of over 65% in size.
Settings: SKOV3ip1-GFP adhesion/invasion on 3D omental model, fluorescence; series mostly up to 45.8 µM; activity change, negative = inhibition: at the top concentration
Source text: PI: Ernst Lengyel MD., Ph.D. Department of Obstetrics and Gynecology, Section of Gynecologic Oncology University of Chicago Medicine, Chicago, Illinois. The tumor microenvironment (TME) is a key determinant of metastatic efficiency. We performed a quantitative high-throughput screen (qHTS) of diverse medicinal chemistry tractable scaffolds (44,420 compounds) and pharmacologically active small molecules (386 compounds) using a layered organotypic, robust assay representing the ovarian cancer metastatic TME. This 3D model contains primary human mesothelial cells, fibroblasts, and extracellular matrix, to which fluorescently labeled ovarian cancer cells are added. Initially, 100 compounds inhibiting ovarian cancer adhesion/invasion to the 3D model in a dose-dependent manner were identified. Of those, eight compounds were confirmed active in five high-grade serous ovarian cancer cell lines and were further validated in secondary in vitro and in vivo biological assays. […] Specifically, NCGC00117362 and PP-121 inhibited ovarian cancer adhesion, invasion, and proliferation, whereas milciclib inhibited ovarian cancer invasion and proliferation. […] To evaluate the clinical potential of NCGC00117362, structure - activity relationship studies were performed. […] The three compounds identified have promise as therapeutics for prevention and treatment of ovarian cancer metastasis.
PROTOCOL TABLE (as described by Inglese J, Shamu CE and Guy RK. 2007) SEQUENCE No. (e.g., 1, 2, 3, etc.); […] (e.g., Cells, Incubation, Reagent, etc.); VALUE; DESCRIPTION. 1; Cells; 4 uL; primary human omental fibroblast, black, clear bottom, low base, 1536-well Aurora assay plate. 2; Incubation; 48 hr; 37C. 3; Cells; 3 uL; 1,200 SKOV3ip1-GFP cells. 4; Compounds; 23nL; acoustic dispenser. 5; Incubation; 2 hr; room temperature. 6; Incubation; 16 hr; 37C. 7; Wash; 5 uL; 1x PBS. 8; Fixing; 5 uL; 4% paraformaldehyde (PFA). 9; Incubation; 15 min; room temperature 10; Wash, 5 uL; 1x PBS. 11; Detection; Fluorescence, excitation filter 488 nm, emission filter 509 nm. NOTES (numbers refer to Sequence numbers above) 1. For the 1,536-well format, 40 primary human omental fibroblasts and 400 mesothelial cells were seeded with 0.02 µg fibronectin and 0.02 µg collagen type I in 4 µL of growth media (2.3 mm2; Supplementary Fig. S1A). 2. Assay plates were incubated for 48 hours at 37 C. 3. After incubation, 1,200 SKOV3ip1-GFP were seeded in 3 µL of serum-free media (growth media minus FBS) on top of primary human omental cells. 4. Compounds or controls were added to each well immediately after the addition of the cancer cells. Compounds were screened in four doses (0.36-46 µmol/L), and the plates contained the positive control (Tomatine) in eight doses (0.035-75 µmol/L) and DMSO (equal volume controls) 5 - 6. The plates were incubated at room temperature for 2 hours and then at 37 degrees C for 16 hours. 7 - 10. Following incubation, the media were aspirated and each well washed with PBS (5 µL) and then fixed with 4% paraformaldehyde (PFA; 5 µL). After 15 minutes, the PFA solution was aspirated, PBS (5 µL) was added. 11. The number of GFP-labeled cells analyzed using a fluorescent cytometer TTP LabTech Acumen eX3 using 488 nm excitation filter and 509 nm emission filter. Data was normalized to the DMSO treated for negative and Tomatine treated wells for positive control. REFERENCES: Inglese J, Shamu CE and Guy RK, Reporting data from high throughput screening of small molecule libraries, Nature Chemical Biology, 2007, 3(8): 438-441. doi.org/10.1038/nchembio0807-438. Yasgar A, Shinn P, Jadhav A, Auld DS, Michael S, Zheng W, Austin CP, Inglese J and Simeonov A, Compound Management for Quantitative High-Throughput Screening. J. Assoc. Lab. Auto., 2008, 13: 79-89. doi: 10.1016/j.jala.2007.12.004.

Activity change, negative = inhibition, inactive:
CCOC(=O)c1c(C)[nH]c(C)c1S(=O)(=O)N1CCCC(C(=O)N2CCN(c3ccc(Cl)cc3)CC2)C1 (stereo unspecified) 3.16%, CCCCOC(=O)c1ccc(NC(=O)c2ccc3c(c2)CCN3S(=O)(=O)c2ccccc2)cc1 -0.147%, Cc1cnc2c(c1SCC(=O)N(C)c1ccccc1)c(=O)n(C)c(=O)n2C 0.531%, O=C(CCCn1c(=O)c2sccc2n(Cc2c(F)cccc2Cl)c1=O)NCc1ccccc1 2.22%, Cn1c(=O)c2c(-c3ccccc3Br)n(C(C)(C)C)cc2n(C)c1=O 6.56%, CCOC(=O)CSc1nc2sc3c(c2c(=O)n1CC)CCCC3 3.13%, COc1ccc(C2CC(=O)c3cc(-c4nc(-c5cccc([N+](=O)[O-])c5)cs4)c(=O)n(-c4cc(C)cc(C)c4)c3C2)cc1 (stereo unspecified) 8%, COc1ccc(C)cc1N(CC(=O)N1CCC(C)CC1)S(=O)(=O)c1ccc(C)cc1 -3.43%, Cc1c(-c2nc(-c3ccc4c(c3)[nH]c(=O)n4C)no2)cccc1[N+](=O)[O-] 40.3%, COc1ccccc1N1CCN(C(=O)c2ccc3c(c2)N(Cc2ccccc2)C(=O)c2ccccc2S3(=O)=O)CC1 -3.95%, Cc1cccc(NC(=O)Cn2nc(C)c3nn(-c4ccc(Cl)cc4)c(C)c3c2=O)c1C -21.3%, Cc1cc(C)cc(NC(=O)CSCc2cc(=O)c3cc(Cl)ccc3[nH]2)c1 -0.535%, Cc1ccc(N2CCN(Cc3nnc(-c4ccc5c(c4)OCO5)o3)CC2)c(C)c1 0.827%, COCCNC(=O)CSc1nc2cc3c(cc2c(=O)n1CCCCCC(=O)NCCc1ccc(OC)c(OC)c1)OCO3 7.31%, O=C(CSc1nnc(-c2cccs2)o1)Nc1cccc(C(F)(F)F)c1 -8.67%, CN1C(C(=O)Nc2ccccn2)=C(O)c2ccccc2S1(=O)=O -27.2%, CCN(CC)c1ccc(NC(=O)C(NS(=O)(=O)c2cccs2)C(C)C)c(C)c1 (stereo unspecified) -0.627%, O=C(OCc1ccccc1F)c1ccc(-c2nnn(Cc3ccccc3)n2)cc1 -2.96%, Cc1cc2c(cc1S(=O)(=O)CCC(=O)NCc1ccccc1)OCC(=O)N2 43.7%, Cc1c(CC(=O)N2CCCCC2)c(=O)oc2c(C)c(O)ccc12 -26.5%, O=C(Cc1ccccc1)NC1CC(=O)N(c2ccc3c(c2)OCCO3)C1 (stereo unspecified) -3.69%, COc1ccc(-n2nnnc2C2CCN(S(=O)(=O)c3cccc(Cl)c3C)CC2)cc1 -15.3%, Cc1ccc(NC(=O)CSc2nnc(C)n3c2cc2sccc23)c(C)c1 0.445%, CCOc1ccccc1NC(=O)CSc1nnc(N)s1 -7.67%, COc1cccc(NC(=O)CSc2nc3c([nH]c4ccccc43)c(=O)n2-c2ccccc2)c1 -2.1%, Cc1ccccc1-c1nnc(CN2CCN(c3cccc(C)c3C)CC2)o1 4.32%, CCC(=O)Nc1ccccc1-c1nc2ccccc2n(CC(=O)c2ccc(C)c(C)c2)c1=O -7.84%, O=S(=O)(Nc1cccc(-c2ccc(N3CCCCCC3)nn2)c1)c1ccccc1F 2.87%, O=C(NCc1ccccc1Cl)c1cc2c(s1)-c1ccccc1SC2 -2.2%, O=C(Cn1ncc2c3ccccc3n(Cc3ccccc3F)c2c1=O)NC1CCCCCC1 -23.1%, Cc1ccc(CSc2ccc(-c3cccs3)nn2)cc1 7.31%, COCCNC(=O)C(=O)NCC(c1cccnc1)N1CCN(c2ccccc2OC)CC1 (stereo unspecified) 4.44%, Cc1ccc(-c2cc(-c3ccc4c(c3)NC(=O)CO4)nc3c2COc2ccc(C)cc2-3)cc1 4.13%, Cc1nc2nc(SCc3c(F)cccc3Cl)nn2c(C)c1Cc1ccccc1 -9.21%, CN(C)S(=O)(=O)c1ccc(C(=O)NCCS(=O)(=O)N2CCN(c3ccccc3)CC2)cc1 -19.1%, COc1cc(C2c3c(-c4c(C)cc(C)cc4O)n[nH]c3C(=O)N2CCO)cc(OC)c1OC (stereo unspecified) 6.53%, O=C(CN1C(=O)COc2ccc(S(=O)(=O)N3CCOCC3)cc21)N1CCN(c2cccc(C(F)(F)F)c2)CC1 -5.39%, CCc1nc2sc3c(N4CCC(C)CC4)ncnc3c2c2c1CCCC2 1.17%, Cc1ccc(CN(C(=O)COc2ccc(Cl)c(C)c2)c2ccccn2)o1 1.27%, Cc1ccc(C(=O)/C=C/c2cn(CC(O)CN3CCc4ccccc43)c3ccccc23)cc1 (stereo unspecified) -10.9%, COc1ccc(OC)c(CNC(=O)c2cc3cc4ccc(OC)cc4nc3o2)c1 14.2%, COc1ccc(-c2noc(COc3cc(C)c(Br)c(C)c3)n2)cc1OC 1.27%, Cc1cc(NC(=O)c2ccccc2Cl)ccc1NC(=O)c1ccccc1 -22.5%, Cc1cc(S(=O)(=O)C(CNC(=O)COc2ccccc2)c2cccs2)ccc1F (stereo unspecified) 5.17%, CCOc1cc2sc(N3CCC(C(=O)Nc4ccccc4Cl)CC3)nc2cc1Br 2.92%, COc1ccccc1Cn1cc(C(=O)c2ccc(Cl)cc2)c(=O)c2cc3c(cc21)OCCO3 0.241%

outcome, inactive:
O=C(Nc1ccc(F)cc1F)c1ccc(-c2ccccc2)s1, CCCC(=O)Nc1ccc2nn(-c3ccc(CC)cc3)nc2c1, Nc1c(C(=O)c2ccc3c(c2)OCO3)sc(Nc2ccccc2F)c1S(=O)(=O)c1ccccc1, Cc1ccc2nc(CSc3nnc(NC(=O)COc4ccccc4F)s3)cc(=O)n2c1, Cc1cccc(-c2noc(CN(C(C)C)S(=O)(=O)c3ccc(Br)cc3)n2)c1, CC1(C)CC(=O)c2cc(-c3nc(-c4ccc(Br)cc4)cs3)c(=O)n(-c3ccccc3)c2C1, COc1ccc(-c2cc(C(F)(F)F)n3nc(-c4ccc(Cl)cc4)cc3n2)cc1OC, Cc1cccc(N2C(=O)CSC23C(=O)N(CC(=O)NCCc2ccccc2)c2ccccc23)c1 (stereo unspecified), O=C1c2ccccc2-c2onc3c(Br)cc(NC4CCCCC4)c1c23, CN(C(=O)c1cnc(N2CCOCC2)c2ccccc12)c1ccccc1F, Brc1ccc(-c2nnc3sc(CN4CCCCC4)cn23)cc1, COc1cc(C(=O)NCC(c2cccnc2)N2CCc3ccccc3C2)cc(OC)c1OC (stereo unspecified), CC(C)(C)NC(=O)c1cnn(-c2ccccc2)c1C1CCN(C(=O)OC(C)(C)C)CC1, Cc1oc2ncn(C)c(=O)c2c1C(=O)Nc1ccccn1, Cc1ccc(-c2nn(CC(=O)NC3CCCC3)c3c2cnc2ccc(F)cc23)cc1C
